In paper PMC6919601, “Identification of Plasmodium dipeptidyl aminopeptidase allosteric inhibitors by high throughput screening” (PLoS ONE, 2019):
Screen size: about 110,000 compounds; about 230 (0.21%) showed an effect of 50% or more. Some of the results follow.

These molecules were tested against DPAP1 (Plasmodium falciparum, UniProt Q8IIJ9) (assay: primary screen, percent inhibition; read by cleavage of a fluorogenic dipeptide substrate; higher = more effect of the substance).
Design: species or system P. falciparum D10 trophozoite lysates; single well
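Also: 30 min substrate incubation versus DMSO and 10 µM JCP410 controls.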

Chain of DPAP1 (Q8IIJ9 whole entry, looked up): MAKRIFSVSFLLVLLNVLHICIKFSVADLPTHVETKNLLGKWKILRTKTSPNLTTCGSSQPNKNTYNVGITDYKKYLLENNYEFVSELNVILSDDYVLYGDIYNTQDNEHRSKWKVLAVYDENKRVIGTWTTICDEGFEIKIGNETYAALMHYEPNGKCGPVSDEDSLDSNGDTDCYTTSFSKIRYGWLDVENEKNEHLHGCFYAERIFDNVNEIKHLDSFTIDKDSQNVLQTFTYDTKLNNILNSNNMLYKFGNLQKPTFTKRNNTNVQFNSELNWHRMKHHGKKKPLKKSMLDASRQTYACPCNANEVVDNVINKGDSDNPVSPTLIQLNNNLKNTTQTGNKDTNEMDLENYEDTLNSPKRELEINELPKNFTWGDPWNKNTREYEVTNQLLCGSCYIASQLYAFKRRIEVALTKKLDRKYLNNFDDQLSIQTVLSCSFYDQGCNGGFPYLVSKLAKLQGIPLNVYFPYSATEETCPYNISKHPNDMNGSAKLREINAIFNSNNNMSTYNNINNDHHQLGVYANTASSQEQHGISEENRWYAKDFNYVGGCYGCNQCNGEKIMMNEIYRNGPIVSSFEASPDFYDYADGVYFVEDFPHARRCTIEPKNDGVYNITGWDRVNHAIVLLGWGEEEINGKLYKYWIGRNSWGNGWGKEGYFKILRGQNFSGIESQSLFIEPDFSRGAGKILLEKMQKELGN

| Structure (SMILES) | % Inhibition @ 10 uM [%] |
| --- | --- |
| CC[C@H](NC(=O)[C@H](CC1CCCCC1)/N=C(\C)NS(=O)(=O)c1ccccc1)C(=O)c1nc2ccccc2o1 | 3.1 |
| CCS(=O)(=O)NCc1cn2ccsc2n1 | 0.953 |
| O=c1cc(CO)oc(CN2CCN(c3ccccn3)CC2)c1O | 0.221 |
| CNCC(=O)N1CCc2cc(OC)c(OC)cc2C1C (centres unmarked) | -2.58 |
| Cc1cccc(NC(=O)C23CC4CC(CC(C4)C2)C3)n1 | -1.28 |
| CCCn1c(-c2ccc(S(=O)(=O)N(C)C)cc2)cs/c1=N\c1ccccc1 | 0.324 |
| CCCc1cc(O)n2c(n1)nc1ccccc12 | 0.221 |
| Cc1nc2ccn(Cc3cccnc3)c(=O)c2cc1C(=O)NCCCc1ccccc1 | -0.835 |
| CCCOc1ccc2oc(=O)c3c(c2c1)CCCN3C(=O)CN1CCN(c2ncccn2)CC1 | 11.4 |
| Cc1cccc(OCC(=O)Nc2ccc(C(C)C)cc2)c1 | 0.247 |
| O=C(Nc1ccc2nc(SCC(=O)N3CCOCC3)sc2c1)c1ccc(Cl)cc1Cl | -2.07 |
| CC(C)(C)C(CN1CCCC1)OC(=O)c1ccccc1 (centres unmarked) | -2.63 |
| O=C(CSc1nc2ccccc2[nH]1)NCCC12CC3CC(CC(C3)C1)C2 | 0.563 |
| O=S(=O)(c1ccc(S(=O)(=O)N(Cc2ccc(F)cc2)CC2CCCO2)cc1)N1CCCCC1 (centres unmarked) | 6.7 |
| CC(C)(C)N(Cc1ccc([N+](=O)[O-])cc1)C(=O)c1ccc([N+](=O)[O-])cc1 | 4.93 |
| CC(CC(NC(=O)OCc1ccccc1)C(=O)NCC#N)c1ccccc1 (centres unmarked) | -1.41 |
| O=[N+]([O-])c1ccccc1/C=C/CN(CCc1ccccc1)Cc1ccccc1 | -5.26 |
| CC(C)=NOC(=O)CCS(=O)(=O)c1nc(-c2cccs2)cc(C(F)(F)F)n1 | -0.631 |
| NC(=O)c1c(N)sc2c1CCCCCCCCCC2 | -0.0619 |
| O=C(Cn1cc(SCc2cccc(C(F)(F)F)c2)c2ccccc21)N1CCOCC1 | 0.0147 |
| N#CC1=C(N)OC2=C(C(=O)CCC2)C1c1cccc(Cl)c1 (centres unmarked) | -1.44 |
| C=CCn1c(Cc2c(C)[nH]c3ccccc23)nnc1SCC(=O)NC12CC3CC(CC(C3)C1)C2 | 0.238 |
| CC(C)C[C@H](NC(=O)OCc1ccccc1)C(=O)NC1CCOC1O (some centres unmarked) | 5.05 |
| COc1ccc(C2C=C(c3ccc(Br)cc3)N=C(S)N2)cc1 (centres unmarked) | 1.54 |
| Cc1nc2cc(NS(=O)(=O)c3cccc4cccnc34)ccc2s1 | -0.624 |
| Fc1ccc(C2=CCN(Cc3ccc(-c4ccc(Cl)cc4)o3)CC2)cc1 | 1.57 |

| Structure (SMILES) | % Inhibition @ 10 uM [%] |
| --- | --- |
| Cc1ccc(C(=O)CCNc2ccc(Br)cc2)o1 | -7.34 |
| CCc1ccc(Oc2nc3c(C)cccn3c(=O)c2/C=C(\C#N)C(=O)NCc2ccco2)cc1 | -3.23 |
| CCCCC(NC(=O)c1ccc(F)cc1)c1nc2ccccc2[nH]1 (centres unmarked) | 6.64 |
| Fc1ccc(N2CCN(C3CCSC3)CC2)cc1 (centres unmarked) | -3.6 |
| Cc1nc2c3cc(F)ccc3n(C)c2s1 | 3.73 |
| CCCCc1c(O)nc2ccc(C)cc2c1C | 1 |
| COc1ccc(-c2nnc(-c3ccc(Cl)cc3)o2)cc1OC | -0.833 |
| CC(=O)C1=C(C)NC(=O)NC1c1cc(Br)ccc1OCC#N (centres unmarked) | -4.76 |
| CCOc1ccc2nc(NC(=O)C3CCCN(S(=O)(=O)c4c(C)nc(O)nc4O)C3)sc2c1 (centres unmarked) | -0.0508 |
| CC(CCN(C)C)OC(=O)c1ccc(C(C)c2ccccc2)o1 (centres unmarked) | 2.3 |
| COC(=O)c1cnc2c(C(F)(F)F)cccc2c1OC | -7.35 |
| Cc1ccc(CSCc2ccc(C(=O)NC3CCCC3)o2)cc1 | 6.86 |
| COc1ccc(CC(=O)Nc2ccc(S(N)(=O)=O)cc2)cc1 | 1.94 |
| CC(C)CNc1ncnc2sc3c(c12)CCCC3 | 13.5 |
| OC1CCN(CC(O)CC(O)(c2ccc(Cl)cc2)c2ccc(Cl)cc2)CC1 (centres unmarked) | 2.02 |
| CCOc1ccccc1/C=C1\N=C(c2ccco2)OC1=O | 7.28 |
| O=S(=O)(c1ccc(OCCn2cnnn2)cc1)N1CCOCC1 | -5.96 |
| COc1cc(CN2CCC(C)CC2)ccc1OCc1ccccc1 | -5.26 |
| N#Cc1c(SCc2ccccc2)nc(N2CCOCC2)c2c1CCCC2 | -2.87 |
| Cc1ccc(OCCCCN2CCOCC2)cc1C | -9.96 |
| Clc1ccc(CCC2CCNCC2)cc1 | -3.75 |
| Cc1cccc(-c2noc(CN(C(=O)COc3ccc(Br)c(C)c3)C(C)C)n2)c1 | -0.0593 |
| O=C(O)c1[nH]c2ccccc2c1CNC1CCCCCC1 | 1.93 |
| COc1ccc(C(=O)N2CCN(Cc3ccc(OC)c(OC)c3OC)CC2)cc1OC | 0.218 |
| O=C(/C=C/c1ccccc1Cl)Nc1ccc2c(c1)OCO2 | -3.94 |
| CCOC(=O)c1oc2ccc3nc(N(C)C)sc3c2c1C | -1.37 |

| Structure (SMILES) | % Inhibition @ 10 uM [%] |
| --- | --- |
| O=C(O)CSc1cc(Cl)ccc1Cl | 6.15 |
| N#Cc1c(N)nc2c(c1-c1ccc(F)cc1)CCCCC2 | 6.66 |
| CSc1ccc(NC(=O)N2CC(C)C(c3ccc(SC)cc3)=N2)cc1 (centres unmarked) | -3.46 |
| COc1ccc2cc(S(=O)(=O)N3CCN(C)CC3)ccc2c1 | 19.4 |
| O=C(Cc1csc(Nc2nc(S)nc3ccccc23)n1)NCCc1ccc(Cl)cc1 | 8.5 |
| COc1ccccc1-n1c(CNC(=O)c2ccccc2)nnc1SCC(=O)Nc1nnc(C)s1 | -1.3 |
| CCCCO/C(O)=C1\C(C)=NC2=C(C(=O)CCC2)C1c1cccc(OC)c1 (centres unmarked) | 0.736 |
| CCC(C)NC(=O)CCn1c(=O)c2cccn2c2cccnc21 (centres unmarked) | -4.51 |
| CN1CCN(CCCNC(=O)c2ccc3c(Cl)c4c(nc3c2)CCCC4)CC1 | -0.0593 |
| CCC1(C)OC(=O)N(CCc2c(C)[nH]c3ccccc23)C1(C)O (centres unmarked) | -5.87 |
| CCOC(=O)c1cc(C)n(-c2ccc(C(=O)NCc3ccc(Cl)cc3)cc2)c1C | -1.41 |
| CC(NC(=O)NC(C(F)(F)F)C(F)(F)F)c1ccccc1 (centres unmarked) | -2.44 |
| O=C(/C=C/c1cccc(Cl)c1)c1ccccn1 | 0.135 |
| CN(CC1CCCCC1)CC(O)c1ccccc1 (centres unmarked) | -1.41 |
| c1cc(-c2nc3cc4sc(-c5cc[nH]n5)nc4cc3s2)[nH]n1 | 33.3 |
| O=C(NCC1CCCO1)C1CCN(c2nnc(-n3cccc3)s2)CC1 (centres unmarked) | -2.25 |
| CCOC(=O)C1=CN(C)C=C(C(=O)OCC)C1c1cccc(OCC)c1 | 1.86 |
| CC(=O)N1CCC(N(CCCOC(C)C)S(=O)(=O)c2ccc(C(C)(C)C)cc2)CC1 | 3.66 |
| O=C(O)c1cc(-c2cccs2)nc2cc3c(cc12)OCCO3 | -0.0508 |
| CCOc1cc(C2c3c(-c4ccccc4O)n[nH]c3C(=O)N2Cc2ccco2)ccc1O (centres unmarked) | 52.6 |
| N#Cc1nc2c(-c3nc4ccccc4s3)c(N)n(-c3ccc(Cl)cc3)c2nc1C#N | -1.81 |
| O=C(c1cccs1)n1nc(-c2ccccc2)nc1NCc1ccccc1Cl | -2.91 |
| Nc1c(C(=O)Nc2cnc3ccccc3c2)sc2nc3c(cc12)CCCCC3 | 3.21 |
| NC(=O)c1cc2cc(Br)ccc2oc1=O | 5.29 |
| Cc1cc(C)c(C#N)c(SCC(N)=O)n1 | 27.9 |
| C#CCSc1nc2c(c(=O)n1-c1ccc(C)cc1)C1(CCCCC1)Cc1ccccc1-2 | -1.99 |

| Structure (SMILES) | % Inhibition @ 10 uM [%] |
| --- | --- |
| CCCCNC(=O)C1CCCN(c2nnc(C)c3c(C)n(-c4ccc(C)cc4)nc23)C1 (centres unmarked) | 3.74 |
| COc1cc(C)c(CNc2ccccc2F)cc1C | -2.02 |
| NC(=O)COc1ccc(C2c3c(oc4ccccc4c3=O)C(=O)N2Cc2ccc3c(c2)OCO3)cc1 (centres unmarked) | -1.33 |
| Cc1ccc(Cl)cc1NC(=O)CC1S/C(=N\c2ccccc2)N(C)C1=O (centres unmarked) | 4.56 |
| COc1ccc(Cn2c(=O)c(C#N)cc3c(=O)n4cccc(C)c4nc32)cc1 | 2.54 |
| CCc1nc(S)c(C#N)c(C(F)(F)F)c1C | 74.2 |
| Cc1cccc(OCCCCN2CCOCC2)c1C | -4.08 |
| O=[N+]([O-])c1ccccc1CSc1nc2ccccc2[nH]1 | 6.43 |
| Cc1ccc(S(=O)(=O)N2CCCN(S(=O)(=O)c3ccc(C)c(C)c3)CC2)cc1C | 22.6 |
| COc1ccc(CCC(=O)Nc2nc(-c3ccccc3)cs2)cc1 | -0.766 |
| COc1cccc(NC(=O)c2ccc(OC)c(OC)c2)c1 | -1.25 |
| COc1ccccc1N1CCN(Cc2ccc(F)cc2)CC1 | -3.72 |
| CCCCOc1ccc(C(=O)Nc2cccc(C(=O)OCC(=O)c3ccccc3)c2)cc1 | -1.77 |
| CCC(C)NC(=O)Cn1cccc1C(=O)c1ccccc1 (centres unmarked) | 4.33 |
| Cc1ccc(C(=O)NC(C(N)=O)C23CC4CC(CC(C4)C2)C3)cc1 (centres unmarked) | 2.86 |
| O=C([C@H](Cc1ccccc1)N1Cc2ccccc2C1=O)N1CCCC1 | -0.465 |
| O=C(O)c1cccc(NC(=O)c2ccco2)c1 | -5.35 |
| CCc1ccc(CNCc2c(C(=O)O)n(Cc3ccc(F)cc3)c3cc(C)ccc23)cc1 | -1.53 |
| COc1ccc(O)c(-c2cc(C(F)(F)C(F)F)nc(-c3ccccc3)n2)c1 | -3.41 |
| Cc1ccc(Oc2nc3c(C)cccn3c(=O)c2/C=C(\C#N)S(=O)(=O)c2ccccc2)c(C)c1 | 2 |
| CCOC(=O)N1CCN(Cc2nc3c(c(=O)n(C)c(=O)n3C)n2CCCO)CC1 | -1.43 |
| CCN(CC)CC#CCC(OC)(c1ccccc1)c1ccccc1 | -7.7 |
| CCc1ccccc1N(CC(=O)Nc1ccccc1)S(=O)(=O)c1ccccc1 | -17.7 |
